Data on 90 compounds can be found in PubChem BioAssay AID463173 (ICCB-Longwood Screening Facility, Harvard Medical School, 2010).

Molecules are shown by their SMILES. Among all 52,000 compounds or so, about 1,700 (3.3%) were called active. No stated cut-off is given here; in the data, active means survival mostly below about 52% (no sharp cut-off); inactive means mostly above about 56%. Some of the results follow.

The test system of this experiment is Wild type. The experiment in a line: S. aureus survival, RN4220 and DeltatarO strains – OD600, teichoic acid synthesis inhibitors, primary screen (AID 463173). The following applies: S. aureus RN4220 wild type/DeltatarO growth, OD600, 18 h, active compounds read low, screened at 18.75 µg/mL (by protocol).
As to `COc1cc(/C=C/C(=O)C2CC2)cc(OC)c1OC`, the survival is inactive: 89%.

As for `COc1ccc(NC(=O)c2oc3ccc(S(=O)(=O)N4CCOCC4)cc3c2C)c(OC)c1`, the survival is inactive: 152%.

For the compound `COc1ccc(N2CCN(C(=O)c3cc4c(=O)n(Cc5cccnc5)ccc4nc3C)CC2)cc1`, the survival is inactive: 88%.

Regarding `COc1ccc(CCNC(=O)c2cnn(-c3ccc(F)cc3)c2C2CCN(C(=O)OC(C)(C)C)CC2)cc1OC`, the survival was inactive: 68%.

`O=C(CN1C(=O)C2(SCC(=O)N2c2ccc(F)c(F)c2)c2ccccc21)NCCc1ccccc1` (stereo not given): the survival is inactive: 80%.

Turning to `CC(Oc1ccccc1)C(=O)Nc1ccc(C(=O)OCc2cc(=O)n3nc(C(C)C)sc3n2)cc1` (stereo not given), the survival was inactive: 72%.

Turning to `Cc1[nH]c2ccc(C(=O)N3CCN(c4ccccc4F)CC3)cc2c1C`, the survival is inactive: 74%.

As for `CCN(CC)S(=O)(=O)c1ccc(NC(=O)Cn2ncc3c([nH]c4ccccc43)c2=O)cc1`, the survival is inactive: 80%.

With `CCOc1ccc(/C=C/c2nc(C#N)c(N3CCN(CC)CC3)o2)cc1`, the survival was inactive: 79%.

Take `Cc1cc(C)cc(OCC(=O)Nc2nc(-c3ccc(F)cc3)ns2)c1`: the survival is inactive: 89%.

In the case of `Cc1cc(F)ccc1NC(=O)c1csc2c1CCC(C)C2` (stereo not given), the survival is inactive: 90%.

In the case of `Cc1ccccc1NC(=O)CSc1c(C(C)C)cnc2c1c(=O)n(C)c(=O)n2C`, the survival was inactive: 74%.

For the compound `CC1OC(Nc2ccc(OC(F)(F)F)cc2)C(O)C(O)C1O` (stereo not given), the survival is inactive: 114%.

Consider `COC(=O)c1cc(NS(=O)(=O)c2ccc3c(c2)OCCO3)ccc1Cl`, for which the survival was inactive: 67%.

Regarding `CCOc1ccccc1NC(=O)CSc1nc2ccccc2nc1N1CCOCC1`, the survival is active: -11%.

With `Cc1ccc(NC(=O)CN2C(=O)CCc3cc(S(=O)(=O)N4CCOCC4)ccc32)cc1N(C)C`, the survival is inactive: 66%.

Turning to `O=C(CCc1nc2cccnc2n1Cc1cccs1)Nc1cccc(C(F)(F)F)c1`, the survival was inactive: 79%.

`O=C(c1ccc(C(F)(F)F)cc1)N1CCC(c2noc(-c3ccc(S(=O)(=O)N4CCCC4)cc3)n2)CC1`: the survival was inactive: 92%.

For the compound `O=C1NC(=O)C(=Cc2ccc(N3CCCC3)o2)C(=O)N1`, the survival is inactive: 102%.

As for `NC(=O)c1ccccc1NC(=O)C1CCCN(c2ncnc3onc(-c4ccc(F)cc4)c23)C1` (stereo not given), the survival was inactive: 68%.

Take `O=C(c1cccs1)N(Cc1cccnc1)c1nc2c(Cl)cccc2s1`: the survival is inactive: 99%.

Regarding `Cc1ccccc1Cn1c(=O)n(Cc2ccc3c(c2)OCO3)c(=O)c2oc3ccccc3c21`, the survival is inactive: 117%.

Turning to `O=C(NC1CCCC1)c1ccc2c(c1)N(Cc1ccc(C(F)(F)F)cc1)C(=O)c1ccccc1S2`, the survival was inactive: 93%.

In the case of `CN(C)C(=O)c1ccc(NC(=O)Cn2nnnc2-c2ccccc2F)cc1`, the survival is inactive: 113%.

In the case of `COc1ccc(CNCCNC(=O)c2ccncc2)c(OC)c1OC`, the survival was inactive: 90%.

With `COCCCNS(=O)(=O)c1cc(-c2onc(C)c2C)ccc1OC`, the survival is inactive: 111%.

With `COc1ccc(N2CCN(C(=O)CSc3n[nH]c(-c4ccccc4)n3)CC2)cc1`, the survival was inactive: 72%.

In the case of `COc1ccc(-c2noc(CCC(=O)N(C)c3ccccc3C)n2)cc1`, the survival is inactive: 71%.

On to `O=C(Nc1ccc(-c2nc3cc(NC(=O)c4ccccc4Cl)ccc3o2)cc1)c1ccccc1Cl`, for which the survival is inactive: 68%.

`COc1ccc(Nc2c3c(nc4ccc(NC(=O)/C=C/c5cc(OC)c(OC)c(OC)c5)cc24)CCCC3)cc1OC`: the survival was inactive: 98%.

As to `COc1cccc(C2(O)CCN(C(=O)c3cccs3)CC2)c1`, the survival was inactive: 111%.

For `CCN(CC)C(=O)C1C(=O)N(C)C2(C)CC1c1ccccc1O2` (stereo not given), the survival is inactive: 108%.

Turning to `N#Cc1ccc(-c2cccs2)nc1SCc1c(F)cccc1Cl`, the survival is inactive: 50%.

Regarding `COc1ccc(N(CC(=O)NCc2ccc(F)cc2)S(=O)(=O)c2c(C)noc2C)cc1`, the survival is inactive: 85%.

As to `CN(C)c1ccc(CN(CC2CCCO2)C(=O)COc2ccccc2Cl)cc1` (stereo not given), the survival is inactive: 80%.

`COc1ccccc1CNC(=O)Cc1c(C)c2c(cc(C)c3c(C)coc32)oc1=O`: the survival is inactive: 84%.

Consider `Cc1ccccc1C(=O)N(Cc1ccc(N(C)C)cc1)Cc1ccco1`, for which the survival is inactive: 87%.

As for `Nn1c(Nc2ccccc2)nc2sc3c(c2c1=O)CCCC3`, the survival was inactive: 104%.

In the case of `COc1ccc(OC)c(-c2nc3c(C#N)c[nH]n3c2NC2CCCCC2)c1`, the survival was inactive: 102%.

`Cc1cccc(NC(=O)NC2CC3CCCC(C2)N3CC(C)C)c1` (stereo not given): the survival was inactive: 102%.

Consider `CC(=O)Nc1ccc2oc(-c3ccccc3)nc2c1`, for which the survival is inactive: 104%.

For `CCCN(c1ccc(C(C)C)cc1)S(=O)(=O)c1ccc2c(c1)CCN2C(=O)CC`, the survival was inactive: 118%.

In the case of `CCc1c(C)nc(N)n2c(SCc3ccc(C(F)(F)F)cc3)nnc12`, the survival was inactive: 101%.

As to `NC(Cc1ccc2nsnc2c1)C(=O)O` (stereo not given), the survival was inactive: 114%.

`CCc1nonc1NC(=O)c1oc2ccc(F)cc2c1C`: the survival is inactive: 89%.

Consider `c1ccc2c(c1)n1cnnc1c1nncn21`, for which the survival is inactive: 93%.

Turning to `CN(C)c1ccc(CNC(=O)C2CCCN(S(=O)(=O)c3ccc4c(c3)oc(=O)n4C)C2)cc1` (stereo not given), the survival is inactive: 98%.

With `O=C(/C=C/c1ccccc1)Nc1ccc2c(c1)OCCO2`, the survival was inactive: 107%.

For the compound `CC1=C(C(=O)Nc2ccc(Cl)cc2)C(c2ccccc2C)n2ncc(C(=O)Nc3ccc(C)cc3)c2N1` (stereo not given), the survival is inactive: 81%.

For `COc1ccc(CCNC(=O)C(=O)NCC(c2ccc3c(c2)OCO3)N2CCOCC2)cc1` (stereo not given), the survival was active: 0%.

In the case of `Cc1cccc(OCC(=O)NC(Cc2c[nH]c3ccccc23)C(=O)O)c1C` (stereo not given), the survival was inactive: 73%.

In the case of `COc1ccc(-n2cc(-c3ccccc3)c3c(NC4CCCCC4)ncnc32)cc1`, the survival is inactive: 124%.

For `O=C1OC2(c3ccccc3)C3CCCC2C13`, the survival is inactive: 115%.

Consider `O=C(Nc1cc(F)ccc1F)N1CCC(CN2CCOCC2)CC1`, for which the survival was inactive: 112%.

With `COc1ccc(CCNC(=O)Cc2nn(C)c(=O)c3ccccc23)cc1OC`, the survival was inactive: 107%.

As to `Cc1cccc(OCCCCn2c(C3CC(=O)N(c4ccccc4Cl)C3)nc3ccccc32)c1` (stereo not given), the survival is active: 17%.

`Cc1ccc2c(CC(=O)Nc3cccc(Cl)c3C)coc2c1`: the survival was inactive: 91%.

With `Cn1c(=O)n(C/C=C/c2ccccc2)c(=O)c2c1nc1n2CCN1c1ccc(F)cc1`, the survival is inactive: 89%.

Turning to `COc1ccc(S(=O)(=O)NCCc2sc(C)nc2C)cc1F`, the survival was inactive: 92%.

With `O=C1c2ccccc2C(=O)N1CCc1c[nH]c2ccccc12`, the survival was inactive: 111%.

Consider `Cc1ccc(-c2nc3cc(NC(=O)c4cc5ccccc5o4)ccc3o2)cc1`, for which the survival is inactive: 80%.

For `CCN1C(=O)c2ccccc2Sc2ccc(NC(=O)COc3ccc(Cl)cc3)cc21`, the survival is inactive: 81%.

For `CCOc1ccc(-c2cnc(NCc3ccc(C(F)(F)F)cc3)n2C)cc1`, the survival is active: -12%.

`CN1CCN(c2ncc3c(n2)CCN(Cc2cc(Br)cs2)C3)CC1`: the survival was inactive: 129%.

On to `COc1ccc(C(=O)CC2(O)C(=O)Nc3c(C)cccc32)c(OC)c1OC` (stereo not given), for which the survival was inactive: 69%.

Turning to `CCOc1ccc(-n2c(SCC(=O)Nc3cccc(Cl)c3)nc3c(oc4ccccc43)c2=O)cc1`, the survival was inactive: 71%.

Turning to `COC(=O)CSc1nc2ccccc2s1`, the survival is inactive: 112%.

As to `Cc1cccc(N2CCN(C(=O)c3cc4c(=O)oc5ccccc5c4s3)CC2C)c1` (stereo not given), the survival was inactive: 63%.

Consider `COc1ccc(CNS(=O)(=O)c2cc3c(cc2C)n(C)c(=O)c(=O)n3C)cc1`, for which the survival was inactive: 77%.

On to `CC(C)CN(CC(C)C)C(=O)C1CCCN(S(=O)(=O)c2ccc3c(c2)oc(=O)n3C)C1` (stereo not given), for which the survival was inactive: 86%.

Take `COc1cccc(NC(=O)c2nn(-c3ccc(C)cc3)c(=O)n(C)c2=O)c1`: the survival is inactive: 135%.

As to `Cc1cc(C)c2nc(N3CCCC(C(=O)NCc4cccc(Cl)c4)C3)sc2c1` (stereo not given), the survival is inactive: 76%.

On to `Cc1ccc(NS(=O)(=O)c2ccc3c(c2)NC(=O)C(C)C(=O)N3)cc1F` (stereo not given), for which the survival was inactive: 86%.

Regarding `Cc1ccc(NC(=O)CSc2cc(=O)n(C)c3ccc(Cl)cc23)c(Br)c1`, the survival was inactive: 81%.

As to `CCc1ccc(CNC(=O)c2ccc3nc(SCc4ccc(F)cc4)n(C)c3c2)cc1`, the survival is inactive: 136%.

As to `CC(NC(=O)c1ccc2c(c1)N(Cc1cccc(F)c1)C(=O)c1ccccc1S2)c1ccccc1` (stereo not given), the survival is inactive: 71%.

As for `Cc1ccc(NC(=O)c2cnn(-c3ccc(C)c(C)c3)c2C2CCN(C(=O)OC(C)(C)C)CC2)c(C)c1`, the survival was inactive: 137%.

Consider `Cc1cccc(NC(=O)Cn2c(=O)n(CCC(C)C)c(=O)c3cccnc32)c1`, for which the survival is inactive: 132%.

Consider `CCCCN(C)CCNC(=O)c1c(C)oc2ncnc(N3CCOCC3)c12`, for which the survival is inactive: 74%.

`Cc1oc2ccc(O)c(CN3CCOCC3)c2c1C(=O)Nc1ccccc1`: the survival is inactive: 91%.

Regarding `Cc1ccc(CNc2ccc(-c3nc(C(C)C)no3)cc2[N+](=O)[O-])cc1`, the survival is inactive: 76%.

Regarding `COc1cc(NC(=O)CN2C(=O)C(c3ccc(C)cc3)=NC23CCCCC3)cc(OC)c1`, the survival is inactive: 84%.

As to `Cc1ccc(-n2nc(C(=O)N3CCN(c4cccc(C(F)(F)F)c4)CC3)c(=O)n(C)c2=O)cc1`, the survival was inactive: 97%.

For the compound `O=C(CCSCCc1ccccn1)Nc1cc(F)ccc1F`, the survival was inactive: 71%.

In the case of `Cc1ccc(-n2c(=O)c3c(c4cc(C)ccc4n3C)n(CC(=O)Nc3c(C)cccc3C)c2=O)cc1`, the survival is inactive: 124%.

On to `O=c1c2sc3ccccc3c2n(Cc2ccccc2F)c(=O)n1Cc1ccccc1`, for which the survival was inactive: 77%.

As to `CCC(CC)C(=O)Nc1cc(-c2cccc(C)c2)nn1-c1ccccc1`, the survival was inactive: 69%.

For `COc1cccc(CNC(=O)C2CCN(C(=O)N3CCOc4ccc(Cl)cc43)CC2)c1OC`, the survival was inactive: 115%.

`COc1ccc(Cl)cc1NC(=O)c1cc(C)nc2c1c(C)nn2-c1ccccc1`: the survival was inactive: 120%.

`CC1=C(C(=O)Nc2ccccc2)C(c2cccnc2)n2nc(SCc3ccccc3F)nc2N1` (stereo not given): the survival is inactive: 69%.
